Earlier results as cited in publication PMC7035970 (Cell chemical biology, 2019).

System: M. tuberculosis H37Rv
Details: mouse; cited from earlier work

O=[N+]([O-])c1ccc(/C=N/Nc2nc(Nc3ccccc3)nc(Nc3ccccc3)n2)o1 [JSF-2019, (E)-6-(2-((5-nitrofuran-2-yl)methylene)hydrazinyl)-N2,N4-diphenyl-1,3,5-triazine-2,4-diamine]
in vivo efficacy in acute M. tuberculosis infection model: lacked in vivo efficacy
